According to PubChem BioAssay AID445 (National Center for Advancing Translational Sciences (NCATS), 2006):
Screen size: about 110,000 compounds; about 40 (0.04%) were called active. Inconclusive means that the source gave no clear call. Such entries were picked first, then a sample of the others. Calls follow the shape of the dose curve; as a rule, active = well fitted curve in the direction sought with a large enough effect in the signal ratio (not every such curve was filed as active); inconclusive = small, poorly fitted or top-dose-only effect, or a change in a side signal; inactive = flat fitted curve, though single readings scatter; the % refers to the signal ratio.

Assay: IkB Signaling;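 also: 0% = basal untreated cells and 100% = reference inhibitor full response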
Details: ABC-DLBCL IkBa-CBG/CBR dual luciferase ratio (green luciferase fused to IkBa over red control in OCI-Ly3 lymphoma cells), 4 h; IkBa stabilization activation: at 57.1 µM (top of the series), scaled: untreated 0%, proteasome inhibitor 100% unless noted
Outline: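 Curves were fitted separately to fusion (green), unfused (red) and ratio luminescence, then classed by r2, magnitude and activity. Cells: OCI-Ly3, 4 h compound plus doxycycline at 37C; 10 uM MG-132 defined full response.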
With `CCOc1ccccc1CNC(=O)Cn1nc(C)c2nn(-c3ccc(Cl)cc3)c(C)c2c1=O` the IkBa stabilization activation was inconclusive: 0.0627% [signal inhibitor]. For `CCOc1ccc(-c2nnn(CC(=O)c3ccc4c(c3)OCCO4)n2)cc1`, the IkBa stabilization activation was inconclusive: 6.36% [signal inhibitor]. For `COc1ccccc1Nc1nc2ccccc2n1C`, the IkBa stabilization activation was “inactive”. With `COc1ccc(N2CCN(S(=O)(=O)c3c(C)nc4sc(C)cn4c3=O)CC2)cc1` the IkBa stabilization activation was “inactive”. With `Cc1cccc(OCC(=O)NCc2ccc3c(c2)CCN3C(=O)c2ccccc2)c1` the IkBa stabilization activation was “inactive”. With `Cc1ccc2[nH]c(=O)c3cc(C(=O)N4CCN(c5ccccc5F)CC4)sc3c2c1` the IkBa stabilization activation was inconclusive: 1.07% [signal inhibitor]. With `O=[N+]([O-])c1cc(N(CCO)CCO)ccc1NCCO` the IkBa stabilization activation was “inactive”. For `CCC(C)NC(=O)c1sc2nc(C)c(C(=O)Nc3ccc(C)cc3C)c(-c3ccc(Br)cc3)c2c1N` (centres undefined), the IkBa stabilization activation was inconclusive: 3.31% [signal inhibitor]. In the case of `COc1ccc(-c2cnc(NCc3ccc(C)cc3)n2C)cc1`, the IkBa stabilization activation is reported as inconclusive: 0.775% [signal inhibitor]. In the case of `COc1ccc(-n2c(=O)c(-c3cccs3)nc3cnc(N4CCOCC4)nc32)cc1`, the IkBa stabilization activation is reported as inactive: -4.1% [at 11.4 µM, scaled: untreated 0%, proteasome inhibitor 100%]. For `COc1ccc(OC)c(-c2cc(C(=O)N3CCN(c4ncccn4)CC3)c3ccccc3n2)c1`, the IkBa stabilization activation was inconclusive: 5.53% [signal inhibitor]. In the case of `COc1ccccc1CNC(=O)c1nn(-c2ccc(C)cc2)c(=O)c2c1c1ccccc1n2C`, the IkBa stabilization activation is reported as inconclusive: -2.17% [signal inhibitor]. In the case of `Cc1cnc(NC(=O)CCCSc2nc3ccccc3s2)s1`, the IkBa stabilization activation is reported as inconclusive: -6.04% [signal inhibitor]. In the case of `COc1ccccc1NC(=O)CSc1oc(-c2cccs2)nc1S(=O)(=O)c1ccc(C)cc1`, the IkBa stabilization activation is reported as inconclusive: 3.28% [signal inhibitor]. For `COc1cccc(C(=O)Nc2nc(-c3ccc(S(=O)(=O)N4CCOCC4)cc3)cs2)c1`, the IkBa stabilization activation was inconclusive: -1.08% [signal inhibitor]. For `COc1cc(NC(=O)c2ccc(Br)o2)ccc1NC(=O)c1ccccc1Cl`, the IkBa stabilization activation was inconclusive: -0.336% [signal inhibitor]. With `CCn1c(C(=O)N2CCCC(C(=O)NCCc3ccc(C)cc3)C2)cc2sccc21` (centres undefined) the IkBa stabilization activation was inconclusive: 5.19% [signal inhibitor]. With `Cc1cc(Nc2cccc(F)c2)n2nc(-c3ccco3)nc2n1` the IkBa stabilization activation was inconclusive: 4.65% [signal inhibitor]. In the case of `O=C(Cn1c(=O)oc2cc(S(=O)(=O)NCc3ccccc3)ccc21)NCc1ccc(F)cc1`, the IkBa stabilization activation is reported as inconclusive: 0.249% [signal inhibitor].
